By IC50 is meant the dose at which the fit gives 50% viability; where the fit passes the top or lowest dose, that dose stands as a limit. The AUC spans the tested range (256-fold, ending at the top dose) of the same fit: 1 means no effect, lower means more sensitive. For part of these data: The top dose, if marked as inferred, was calculated from the reported fits. For part of these data: Where an entry number is given, a second screen of the drug exists; the two often differ.
How the values were obtained:
Assay in all cases: Viability of human cancer cell lines after 72 h of drug (GDSC screen)
Elesclomol = compound: CN(NC(=O)CC(=O)NN(C)C(=S)c1ccccc1)C(=S)c1ccccc1 [Elesclomol]; conditions: top dose 0.2 µM; top dose inferred
Description: (§1)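 Human cancer cell lines in 384-well plates, medium with 10% serum, drug for 72 h over a 256-fold dose range (nine 2-fold or five 4-fold steps up to the top dose). Adherent lines were fixed and stained with the nucleic acid dye Syto60, suspension lines read with resazurin; signal relative to control wells, capped at 0 and 100%. One two-parameter sigmoid per drug and line, fitted in a mixed model over all curves with the slope shared within a line.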

LAQ824 = compound: O=C(/C=C/c1ccc(CN(CCO)CCc2c[nH]c3ccccc23)cc1)NO [LAQ824]; conditions: top dose 1.024 µM; top dose inferred
Description: as §1

Masitinib = compound: Cc1ccc(NC(=O)c2ccc(CN3CCN(C)CC3)cc2)cc1Nc1nc(-c2cccnc2)cs1 [Masitinib]; conditions: top dose 20 µM
Description: as §1

Tamoxifen = compound: CC/C(=C(\c1ccccc1)c1ccc(OCCN(C)C)cc1)c1ccccc1 [Tamoxifen]; conditions: top dose 5 µM
Description: as §1

OSI-930 = compound: O=C(Nc1ccc(OC(F)(F)F)cc1)c1sccc1NCc1ccnc2ccccc12 [OSI-930]; conditions: top dose 10.24 µM
Description: as §1

NSC-87877 = compound: O=S(=O)(O)c1ccc2cc(N=Nc3cc(S(=O)(=O)O)c4cccnc4c3O)ccc2c1 [NSC-87877]; conditions: top dose 16 µM; top dose inferred
Description: as §1

Bleomycin = compound: Cc1c(N)nc([C@H](CC(N)=O)NC[C@H](N)C(N)=O)nc1C(=O)N[C@H](C(=O)N[C@H](C)[C@@H](O)[C@H](C)C(=O)N[C@H](C(=O)NCCc1nc(-c2nc(C(=O)NCCC[S+](C)C)cs2)cs1)[C@@H](C)O)[C@@H](OC1OC(CO)C(O)C(O)C1OC1OC(CO)C(O)C(OC(N)=O)C1O)c1cnc[nH]1 [Bleomycin]
Description: as §1

BX-912 = compound: O=C(Nc1cccc(Nc2ncc(Br)c(NCCc3cnc[nH]3)n2)c1)N1CCCC1 [BX-912]; conditions: top dose 10.24 µM; top dose inferred
Description: as §1

VNLG/124 = compound: CCCC(=O)OCc1ccc(OC(=O)/C=C(C)/C=C/C=C(C)/C=C/C2=C(C)CCCC2(C)C)cc1 [VNLG/124]; conditions: top dose 5.12 µM; top dose inferred
Description: as §1

[1] = top dose 50 µM, screen: GDSC drug entry 1378, top dose inferred
[2] = top dose 64 µM, screen: GDSC drug entry 190

| Cell Line | AUC (Elesclomol) | IC50 (Elesclomol) [µM] | AUC (LAQ824) | IC50 (LAQ824) [µM] | AUC (Masitinib) | IC50 (Masitinib) [µM] | AUC (Tamoxifen) | IC50 (Tamoxifen) [µM] | AUC (OSI-930) | IC50 (OSI-930) [µM] | AUC (NSC-87877) | IC50 (NSC-87877) [µM] | AUC (Bleomycin; [1]) | IC50 (Bleomycin; [1]) [µM] | AUC (Bleomycin; [2]) | IC50 (Bleomycin; [2]) [µM] | AUC (BX-912) | IC50 (BX-912) [µM] | AUC (VNLG/124) | IC50 (VNLG/124) [µM] |
| --- | --- | --- | --- | --- | --- | --- | --- | --- | --- | --- | --- | --- | --- | --- | --- | --- | --- | --- | --- | --- |
| MOLP-8 (myeloma, suspension) | 0.563 | 0.0185 | 0.191 | 0.00801 | 0.784 | 8.16 | 0.985 | > 5 | 0.912 | > 10.2 | 0.984 | > 16 | 0.664 | 8.75 | 0.466 | 3.24 | 0.251 | 0.128 | 0.987 | > 5.12 |
| SK-HEP-1 (liver, adherent) | 0.935 | > 0.2 | 0.445 | 0.0459 | 0.979 | > 20 | 0.988 | > 5 | 0.984 | > 10.2 | 0.985 | > 16 | 0.298 | 0.881 | 0.249 | 0.805 | 0.946 | > 10.2 | 0.972 | > 5.12 |
| JHU-011 (head and neck, adherent) | 0.549 | 0.017 | 0.212 | 0.00928 | 0.758 | 6.84 | 0.985 | > 5 | 0.973 | > 10.2 | 0.943 | > 16 | 0.103 | < 0.195 | 0.291 | 1.04 | 0.903 | > 10.2 | 0.974 | > 5.12 |
| HOP-62 (lung adenocarcinoma, adherent) | 0.57 | 0.0194 | 0.29 | 0.0164 | 0.885 | > 20 | 0.984 | > 5 | 0.965 | > 10.2 | 0.986 | > 16 | 0.187 | 0.363 | 0.053 | < 0.25 | 0.89 | > 10.2 | 0.978 | > 5.12 |
| KON (head and neck, adherent) | 0.534 | 0.0155 | 0.395 | 0.0333 | 0.977 | > 20 | 0.928 | > 5 | 0.981 | > 10.2 | 0.81 | 8.2 | 0.522 | 3.59 | 0.109 | < 0.25 | 0.966 | > 10.2 | 0.98 | > 5.12 |
| LU-139 (small cell lung carcinoma, suspension) | 0.756 | 0.0863 | 0.495 | 0.0617 | 0.753 | 8.4 | 0.98 | > 5 | 0.929 | > 10.2 | 0.972 | > 16 | 0.904 | > 50 | 0.917 | > 64 | 0.886 | > 10.2 | 0.979 | > 5.12 |
| SUP-T1 (T-cell lymphoblastic leukaemia, suspension) | 0.977 | > 0.2 | 0.281 | 0.0164 | 0.863 | 14.8 | 0.984 | > 5 | 0.949 | > 10.2 | 0.986 | > 16 | 0.815 | 24.4 | 0.043 | < 0.25 | 0.686 | 2 | 0.984 | > 5.12 |
| BC-1 (B-cell lymphoma, suspension) | 0.82 | 0.0935 | 0.315 | 0.0212 | 0.96 | > 20 | 0.961 | > 5 | 0.915 | > 10.2 | 0.991 | > 16 | 0.689 | 9.66 | 0.406 | 2.31 | 0.567 | 0.948 | 0.988 | > 5.12 |
| IM-9 (myeloma, suspension) | 0.991 | > 0.2 | 0.874 | 0.763 | – | – | 0.983 | > 5 | – | – | 0.962 | > 16 | 0.619 | 6.33 | 0.48 | 3.56 | – | – | – | – |
| MOLT-13 (T-cell lymphoblastic leukaemia, suspension) | 0.987 | > 0.2 | – | – | 0.679 | 3.69 | 0.962 | > 5 | 0.916 | > 10.2 | – | – | 0.791 | 19.5 | – | – | 0.558 | 0.904 | 0.927 | > 5.12 |
| IGR-37 (melanoma, adherent) | 0.65 | 0.0312 | 0.427 | 0.0413 | – | – | 0.988 | > 5 | 0.988 | > 10.2 | 0.986 | > 16 | 0.682 | 9.56 | 0.099 | < 0.25 | – | – | 0.96 | > 5.12 |
| OV-7 (ovary, adherent) | 0.7 | 0.0616 | – | – | 0.872 | > 20 | 0.946 | > 5 | 0.954 | > 10.2 | – | – | 0.554 | 4.72 | – | – | 0.917 | > 10.2 | 0.976 | > 5.12 |
| KP-1N (pancreas, adherent) | 0.64 | 0.0312 | 0.515 | 0.0707 | – | – | 0.983 | > 5 | – | – | 0.985 | > 16 | 0.366 | 1.31 | 0.592 | 7.22 | 0.912 | > 10.2 | – | – |
| Hs746T (stomach, adherent) | 0.671 | 0.0444 | – | – | 0.874 | > 20 | 0.974 | > 5 | 0.978 | > 10.2 | 0.967 | > 16 | 0.787 | 30.5 | – | – | 0.655 | 2.01 | 0.971 | > 5.12 |

— the supplement of paper PMC4967469
